{
  "source": "PubChem BioAssay AID686979",
  "about": "(National Center for Advancing Translational Sciences (NCATS), 2013)",
  "note": "“And” between values parts separate entries of the source, which are not always exact repeats. Equal values may be shown once. Among all 420,000 compounds or so, about 50,000 (12%) were called active. The inconclusive results got no clear call from the source; some entries with a clear call stand among them for comparison. Calls come from the whole dose curve; as a rule, active = well fitted inhibition curve with a large enough effect; inconclusive = small, poorly fitted or top-dose-only effect; inactive = flat fitted curve, though single readings scatter. Potencies of inconclusive entries are doubtful fits and often do not repeat. % is set by controls: 0 for no effect and ±100 for the full control effect; potency is the fitted concentration of half-maximal effect; tags give direction and shape of the fitted curve.",
  "data": [
    {"assay": "qHTS for Inhibitors of human tyrosyl-DNA phosphodiesterase 1 (TDP1): qHTS in cells in presence of CPT; note: nearly all actives have a fitted effect of over 55% in size", "conditions": "chicken DT40 Tdp1-/-;hTDP1 cells + 20 nM CPT, ATP luminescence, 48 h; activity change, negative = growth inhibition: at 46.2 µM (top of the series)", "how_it_was_run": "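Chicken DT40 Tdp1-/- cells stably complemented with human TDP1 were seeded at 400 cells/well in medium containing 20 nM camptothecin, exposed to pin-transferred compounds, and grown at 37 °C for at least 48 hr. Viability was read as ATP luminescence.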", "values": [
      {"molecule": "O=C(Nc1cc(Cl)cc(Cl)c1)Nc1cnccn1", "Potency": "inconclusive: 29.1 µM [inhibitor, single point]"},
      {"molecule": "C#CCN(C)Cc1ccccc1", "Potency": "inactive"},
      {"molecule": "Cc1ccc(NC(=O)C2CCCN(C(=O)c3ccc(Cl)cc3)C2)cc1", "note": "(stereo not given)", "Potency": "inconclusive: 29.1 µM [inhibitor, single point]"},
      {"molecule": "CCN1c2ccccc2-n2cccc2C12CCN(C(=O)Nc1ccccc1C(F)(F)F)CC2", "Potency": "inconclusive: 23.1 µM [inhibitor, single point]"},
      {"molecule": "O=C(Nc1ccc(F)c(Cl)c1)N1CCN(C(=O)c2nsc3ccccc23)CC1", "Potency": "inconclusive: 25.9 µM [inhibitor, single point]"},
      {"molecule": "Cc1cc(C)cc(-n2c(SCC(=O)N3CCc4ccccc43)nc3c([nH]c4ccccc43)c2=O)c1", "Potency": "inactive"},
      {"molecule": "CC(=O)Nc1ccc(Nc2ncnc3c2c(-c2ccccc2)cn3-c2ccccc2)cc1", "Potency": "active: 16.4 µM"},
      {"molecule": "Cc1c(C(=O)Nc2cccc(Oc3ccccc3)c2)sc(=O)n1Cc1ccc(F)cc1", "Potency": "inconclusive: 23.1 µM [inhibitor, single point]"},
      {"molecule": "Cc1cccc(C)c1NC(=O)Cn1nnc(-c2ccc(N3CCOCC3)cc2)n1", "Potency": "inconclusive: 29.1 µM [inhibitor, single point]"},
      {"molecule": "CN(CC(=O)Nc1ccccc1Br)C(=O)c1ccc(-c2ccc(Cl)cc2)o1", "Potency": "inconclusive: 23.1 µM [inhibitor, single point]"},
      {"molecule": "O=C(CN(c1ccc(Br)cc1)S(=O)(=O)c1ccc(Cl)c([N+](=O)[O-])c1)NCC1CCCO1", "note": "(stereo not given)", "Potency": "active: 16.4 µM"},
      {"molecule": "O=C(Cn1c(-c2cscn2)nc2ccccc21)Nc1ccc2ccccc2c1", "Potency": "active: 14.1 µM"},
      {"molecule": "Cn1c(=O)c2[nH]c(SCCN3CCCCC3)nc2n(C)c1=S", "activity change, negative = growth inhibition": "inconclusive: -21.8% [inhibitor]"},
      {"molecule": "Cc1cc(N2CCN(c3ccccc3Cl)CC2)n2cc(-c3ccccc3)nc2n1", "Potency": "inconclusive: 29.1 µM [inhibitor, single point]"},
      {"molecule": "Cc1ccc(OC(C)c2nnc(N)s2)cc1Cl", "note": "(stereo not given)", "Potency": "active: 20.6 µM"},
      {"molecule": "Cc1cccc(NC(=O)CSCC(=O)N(C)Cc2ccc3c(c2)OCCO3)c1", "Potency": "inconclusive: 29.1 µM [inhibitor, single point]"},
      {"molecule": "COc1ccc(NC(=O)CNC(=O)CC23CC4CC(CC(C4)C2)C3)c(OC)c1", "Potency": "inconclusive: 16.4 µM [inhibitor, single point]"},
      {"molecule": "CCOc1cc(/C=N/NC(=O)c2c(C)nc3ccc(Cl)cn23)ccc1O", "Potency": "active: 13 µM"},
      {"molecule": "CC1Cc2ccccc2N1C(=O)c1cc2c(=O)n3ccccc3nc2n1C", "note": "(stereo not given)", "Potency": "active: 11.6 µM"},
      {"molecule": "CCOC(=O)c1ccc(NC(=O)C2CCN(C(=O)c3ccc(OC)c(OC)c3)CC2)cc1", "Potency": "inconclusive: 11.6 µM [inhibitor, single point]"},
      {"molecule": "COc1cc(C(=O)NCCC(=O)NCCCN2CCCCC2C)cc(OC)c1OC", "note": "(stereo not given)", "Potency": "inconclusive: 7.31 µM [inhibitor, single point]"},
      {"molecule": "Cc1ccc(NC(=S)NC2CCSc3ccccc32)cc1C", "note": "(stereo not given)", "Potency": "active: 16.4 µM"},
      {"molecule": "CCCCCCn1c(=O)n2n(c1=O)[C@@H]1CN(S(=O)(=O)c3ccc(C)cc3)C[C@]1(O)[C@@H](OC(=O)NCc1ccccc1)C2", "Potency": "inconclusive: 29.1 µM [inhibitor, single point]"},
      {"molecule": "CC(C)C[C@@H](CNCC(=O)[C@H](CC(C)C)NC(=O)c1[nH]cnc1C(=O)N[C@@H](C)CN)NC(=O)c1nc[nH]c1C(=O)N[C@@H](Cc1ccccc1)C(=O)O", "Potency": "inconclusive: 29.1 µM [inhibitor, single point]"},
      {"molecule": "COc1ccc(S(=O)(=O)NCC(c2cccnc2)N2CCN(Cc3ccccc3)CC2)cc1C", "note": "(stereo not given)", "Potency": "inconclusive: 20.6 µM [inhibitor, partial curve]"},
      {"molecule": "CCc1cccc(OCC(O)Cn2c(N3CCCCC3)nc3c2c(=O)[nH]c(=O)n3C)c1", "note": "(stereo not given)", "Potency": "active: 8.2 µM"},
      {"molecule": "COc1ccc(Cl)cc1-c1cc(C(=O)Nc2ccc(C)c(NS(C)(=O)=O)c2)[nH]n1", "Potency": "active: 18.4 µM"},
      {"molecule": "CCNC(=S)N(CCc1c(C)[nH]c2ccc(C)cc12)Cc1cccnc1", "Potency": "inconclusive: 23.1 µM [inhibitor, partial curve]"},
      {"molecule": "CCOc1ccc2nc(N3CCN(C(=O)CS(=O)(=O)c4ccc(F)cc4)CC3)sc2c1", "Potency": "active: 14.6 µM"},
      {"molecule": "CCOC(=O)C1=NN(C(C)=O)C2(CC(=O)N(c3cccc(C)c3)C2=O)C1", "note": "(stereo not given)", "Potency": "inconclusive: 29.1 µM [inhibitor, single point]"},
      {"molecule": "Cc1nc2c(OCc3ccc(C#N)cc3)cccn2c1N(C)C(=O)CCC1CCCC1", "Potency": "inconclusive: 29.1 µM [inhibitor, single point]"},
      {"molecule": "COc1ccc([C@H]2C[C@@H](n3cc(COC(=O)c4ccccc4)nn3)[C@H](O)CN2Cc2cccs2)cc1", "Potency": "inconclusive: 29.1 µM [inhibitor, single point]"},
      {"molecule": "CCOc1cc(CNc2ccc(N(C)C)cc2)cc(Br)c1OCC(=O)NC(C)(C)C", "Potency": "active: 18.4 µM"},
      {"molecule": "CCOc1ccc(S(=O)(=O)NCCC(=O)N(C)CC(=O)Nc2ccc(N3CCOCC3)cc2)cc1", "Potency": "inactive"},
      {"molecule": "CCC/C=C/c1ccc(CN2C(C)C(=O)N(Cc3cn(CCOCOC)nn3)CCS2(=O)=O)cc1", "note": "(stereo not given)", "Potency": "inactive"},
      {"molecule": "O=C1CC(C(=O)Nc2ccc(F)c(Cl)c2)N=C(N2CCCCC2)N1", "note": "(stereo not given)", "Potency": "inconclusive: 18.4 µM [inhibitor, partial curve, poor fit]"},
      {"molecule": "Cc1ccc(OCC(O)CNC2CCCC2)cc1C", "note": "(stereo not given)", "Potency": "inconclusive: 4.11 µM [inhibitor, single point]"},
      {"molecule": "O=c1c2cc3c(cc2nc2sc(Nc4ccc(F)cc4F)nn12)OCO3", "Potency": "inactive"},
      {"molecule": "CCOc1ccc(/C=C(\\C(=O)O)c2ccc(S(=O)(=O)N3CCCCC3)s2)cc1OC", "Potency": "inactive"},
      {"molecule": "COc1ccc(COc2cc(-c3cccc(OC)c3)nc3ccc(NC(=O)c4cccnc4)cc23)cc1", "Potency": "inconclusive: 23.1 µM [inhibitor, single point]"},
      {"molecule": "O=C(Nc1cccc(Cl)c1)Nc1ccccc1C(=O)O", "Potency": "inactive"},
      {"molecule": "Cn1nc(C(=O)N2CCN(c3ccc(Cl)cc3)CC2)c2c1-c1ccccc1SC2", "Potency": "inconclusive: 23.1 µM [inhibitor, single point]"},
      {"molecule": "O=C(COC(=O)c1ccc[nH]c1=O)NCCCc1ccccc1", "Potency": "inactive"},
      {"molecule": "CCNc1nc(-c2ccc(OC(F)F)cc2)c(C)s1", "activity change, negative = growth inhibition": "inconclusive: -30.2% [inhibitor]"},
      {"molecule": "Cc1cc(C)c(S(=O)(=O)N2CCOC2CNC(=O)C(=O)NCc2ccncc2)c(C)c1", "note": "(stereo not given)", "Potency": "inactive"},
      {"molecule": "CCCCNC(=O)C1CCN(Cc2ccc(OCc3ccccc3)c(OC)c2)CC1", "Potency": "inconclusive: 18.4 µM [inhibitor, single point]"},
      {"molecule": "COc1ccc(NC(=O)c2cc(C3CCCCN3C(=O)C3CCCCC3)on2)c(C)c1", "note": "(stereo not given)", "Potency": "inconclusive: 29.1 µM [inhibitor, single point]"},
      {"molecule": "CCC(C)c1ccc(NC(=S)NCc2cccs2)cc1", "note": "(stereo not given)", "Potency": "inconclusive: 16.4 µM [inhibitor, partial curve]"},
      {"molecule": "Cc1ccc(C)c(N2CCN(c3ncnc4c3nc3n4CCCCC3)CC2)c1", "Potency": "inconclusive: 23.1 µM [inhibitor, single point]"},
      {"molecule": "CC1CC(C)CN(c2ncc3c(n2)CC(c2ccccc2Cl)CC3=O)C1", "note": "(stereo not given)", "Potency": "inconclusive: 29.1 µM [inhibitor, single point]"},
      {"molecule": "O=C(CN1C(=O)NC2(CCCC2)C1=O)OCCOc1ccc(F)cc1", "Potency": "inconclusive: 23.1 µM [inhibitor, partial curve]"},
      {"molecule": "COc1ccc(-n2c(SCC(=O)Nc3cc(C(=O)O)ccc3C)nc3ccccc3c2=O)cc1Cl", "Potency": "inconclusive: 20.6 µM [inhibitor, single point]"},
      {"molecule": "C=CCO/N=C(\\C)c1c(O)c(C)c(-c2ccccc2)n(-c2ccccc2)c1=O", "Potency": "inactive"},
      {"molecule": "CC(OC(=O)C1CC(O)CN1S(=O)(=O)c1ccccc1[N+](=O)[O-])C(=O)N1CCCCC1", "note": "(stereo not given)", "Potency": "inactive"},
      {"molecule": "C[C@H]1O[C@@H](O[C@H]2CC[C@@]3(C)C(CC[C@]4(C)C3C=C[C@]35OC[C@@]6(CCC(C)(C)C[C@H]63)[C@@H](O)C[C@]54C)[C@]2(C)CO)[C@H](O)[C@@H](O[C@@H]2O[C@H](CO)[C@@H](O)[C@H](O)[C@H]2O)[C@H]1O", "note": "(stereo not given in full)", "Potency": "inconclusive: 18.4 µM [inhibitor, single point]"},
      {"molecule": "O=C(C1CCCN(S(=O)(=O)c2cccs2)C1)N1CCN(c2cccc(Cl)c2)CC1", "note": "(stereo not given)", "Potency": "active: 20.6 µM"},
      {"molecule": "CCOC(=O)C(=CNc1cc(C)ccc1[N+](=O)[O-])C(=O)OCC", "Potency": "inconclusive: 16.4 µM [inhibitor, single point]"},
      {"molecule": "CSc1ccccc1C(=O)C1CCCN(C(=O)c2cc(C(C)C)no2)C1", "note": "(stereo not given)", "Potency": "inconclusive: 29.1 µM [inhibitor, single point]"},
      {"molecule": "O=C1CN(C(=O)c2cc(Br)c(Br)s2)c2ccccc2N1", "Potency": "inconclusive: 29.1 µM [inhibitor, single point]"},
      {"molecule": "CCS(=O)(=O)c1ccc(C(=O)Nc2ccccc2)c(Cl)c1Cl", "Potency": "inconclusive: 29.1 µM [inhibitor, single point]"},
      {"molecule": "Cc1ccc2[nH]c(=O)c(CN(CC3CCCO3)S(=O)(=O)c3cccc4nsnc34)cc2c1", "note": "(stereo not given)", "Potency": "inconclusive: 23.1 µM [inhibitor, single point]"},
      {"molecule": "O=c1[nH]c2ccccc2c2ccccc12", "Potency": "inconclusive: 11.2 nM [inhibitor, full curve, poor fit] and inconclusive: 29.1 µM [inhibitor, single point]"},
      {"molecule": "CC(C)CN(C(=O)c1ccc(-n2cncn2)c([N+](=O)[O-])c1)C1CCS(=O)(=O)C1", "note": "(stereo not given)", "Potency": "inactive"},
      {"molecule": "COCC(=O)N(Cc1cc2ccc(C)cc2[nH]c1=O)c1ccc(C)cc1C", "Potency": "inactive"},
      {"molecule": "Cc1cccc(C)c1-n1nnnc1C(c1ccnc2ccccc12)N(C)Cc1ccc(Cl)c(Cl)c1", "note": "(stereo not given)", "Potency": "inactive"}
    ]}
  ]
}
